This passage reports GI50 and TGI results from PubChem BioAssay (NCI).

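Dose response: 5 concentrations. Exposure: 48 h. Format: 96-well plates. Endpoint: linear interpolation; highest concentration if not reached. GI50 marks 50% less growth. TGI is the concentration that stops growth completely.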

The assay has as its system NCI-H322M lung. Description: NCI-60 cell line screen, 48 h.
For `O=C(N/N=C/c1ccc(Cl)cc1)c1ccc(OCc2nc3ccc(Cl)cc3[nH]2)cc1`, the GI50 is 12.6 µM and the TGI came out at 35.1 µM.

For the compound `C=C1CC[C@H](C(=C)C)[C@H]2C=C(C)C(=O)C3=C(C(=O)[C@@](C)(O)C3)[C@H]12`, the GI50 is 1.5 µM and the TGI came out at 2.83 µM.

As to `O/N=C(\CSc1nnc(-c2c[nH]c3ccccc23)n1-c1ccccc1)c1ccc(Cl)cc1`, the GI50 was 5.71 µM and the TGI came to 73.3 µM.
